Source: paper PMC12820563
This is one part of the list. The list includes weakly bound sequences.

What follows are sequences tested against T1, MBP-FoxP3dN (UniProt Q99JB6) (assay: PD-seq (MBP pull-down with sequencing)). Conditions: 20 mM Tris-HCl pH 7.5, 100 mM NaCl, 1.5 mM MgCl2, 0.4 uM protein, 0.1 uM dsDNA library, 30 min, room temperature, amylose pull-down; high values mean tight binding; double strand, one strand shown.
T1 sequence: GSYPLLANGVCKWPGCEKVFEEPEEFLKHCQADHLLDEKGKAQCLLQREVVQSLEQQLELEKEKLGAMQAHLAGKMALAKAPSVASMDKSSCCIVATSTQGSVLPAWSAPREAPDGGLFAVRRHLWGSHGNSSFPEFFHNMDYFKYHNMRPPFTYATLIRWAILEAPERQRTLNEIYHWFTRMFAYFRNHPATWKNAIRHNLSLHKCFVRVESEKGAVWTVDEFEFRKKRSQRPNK

Sequence	binding signal (RPM ratio (pull-down/input))
GATGATTGTTCTCCCAGCTGATGAATTTCTAATATCGAGTAAACAAATTTTCCTAATCTTTCTGTTCAAGCGCCATCTAC	0.363
GATGATTGTTCTCCCAGCTGATGAATTGAATGTTTCGAGTAAACAAATTTTCCTAATCTTTCTGTTCAAGCGCCATCTAC	1.11
GATGATTGTTCTCCCAGCTGATGAATTAACGCCGTCGAGTAAACAAATTTTCCTAATCTTTCTGTTCAAGCGCCATCTAC	0.676
GATGATTGTTCTCCCAGCTGATGAATTTCCAGGGTCGAGTAAACAAATTTTCCTAATCTTTCTGTTCAAGCGCCATCTAC	0.127
GATGATTGTTCTCCCAGCTGATGAATTCCAACCGTCGAGTAAACAAATTTTCCTAATCTTTCTGTTCAAGCGCCATCTAC	0.268
GATGATTGTTCTCCCAGCTGATGAATTCCATCCCTCGAGTAAACAAATTTTCCTAATCTTTCTGTTCAAGCGCCATCTAC	0.43
GATGATTGTTCTCCCAGCTGATGAATTACTTGAGTCGAGTAAACAAATTTTCCTAATCTTTCTGTTCAAGCGCCATCTAC	0.261
GATGATTGTTCTCCCAGCTGATGAATTATGCGAATCGAGTAAACAAATTTTCCTAATCTTTCTGTTCAAGCGCCATCTAC	0.729
GATGATTGTTCTCCCAGCTGATGAATTCGGCTAGTCGAGTAAACAAATTTTCCTAATCTTTCTGTTCAAGCGCCATCTAC	1.02
GATGATTGTTCTCCCAGCTGATGAATTCCTGGTTTCGAGTAAACAAATTTTCCTAATCTTTCTGTTCAAGCGCCATCTAC	0.327
GATGATTGTTCTCCCAGCTGATGAATTGATGGTCTCGAGTAAACAAATTTTCCTAATCTTTCTGTTCAAGCGCCATCTAC	0.916
GATGATTGTTCTCCCAGCTGATGAATTTGGGGTGTCGAGTAAACAAATTTTCCTAATCTTTCTGTTCAAGCGCCATCTAC	1.47
GATGATTGTTCTCCCAGCTGATGAATTTGACTGATCGAGTAAACAAATTTTCCTAATCTTTCTGTTCAAGCGCCATCTAC	0.393
GATGATTGTTCTCCCAGCTGATGAATTTTAACTTTCGAGTAAACAAATTTTCCTAATCTTTCTGTTCAAGCGCCATCTAC	0.401
GATGATTGTTCTCCCAGCTGATGAATTATCTCGTTCGAGTAAACAAATTTTCCTAATCTTTCTGTTCAAGCGCCATCTAC	0.367
GATGATTGTTCTCCCAGCTGATGAATTTTGACAATCGAGTAAACAAATTTTCCTAATCTTTCTGTTCAAGCGCCATCTAC	0.626
GATGATTGTTCTCCCAGCTGATGAATTCTAGGACTCGAGTAAACAAATTTTCCTAATCTTTCTGTTCAAGCGCCATCTAC	0.242
GATGATTGTTCTCCCAGCTGATGAATTTGGAAAATCGAGTAAACAAATTTTCCTAATCTTTCTGTTCAAGCGCCATCTAC	0.201
GATGATTGTTCTCCCAGCTGATGAATTGATAGGATCGAGTAAACAAATTTTCCTAATCTTTCTGTTCAAGCGCCATCTAC	0.335
GATGATTGTTCTCCCAGCTGATGAATTCCCCTATTCGAGTAAACAAATTTTCCTAATCTTTCTGTTCAAGCGCCATCTAC	0.298

Sequence	binding signal (RPM ratio (pull-down/input))
GATGATTGTTCTCCCAGCTGATGAATTATTGGGATCGAGTAAACAAATTTTCCTAATCTTTCTGTTCAAGCGCCATCTAC	0.71
GATGATTGTTCTCCCAGCTGATGAATTAACCCCGTCGAGTAAACAAATTTTCCTAATCTTTCTGTTCAAGCGCCATCTAC	0.214
GATGATTGTTCTCCCAGCTGATGAATTCCTGCATTCGAGTAAACAAATTTTCCTAATCTTTCTGTTCAAGCGCCATCTAC	5.61
GATGATTGTTCTCCCAGCTGATGAATTCCAGTTCTCGAGTAAACAAATTTTCCTAATCTTTCTGTTCAAGCGCCATCTAC	0.521
GATGATTGTTCTCCCAGCTGATGAATTAACTTGGTCGAGTAAACAAATTTTCCTAATCTTTCTGTTCAAGCGCCATCTAC	0.401
GATGATTGTTCTCCCAGCTGATGAATTTCCAGTGTCGAGTAAACAAATTTTCCTAATCTTTCTGTTCAAGCGCCATCTAC	0.319
GATGATTGTTCTCCCAGCTGATGAATTTGTAAGATCGAGTAAACAAATTTTCCTAATCTTTCTGTTCAAGCGCCATCTAC	0.496
GATGATTGTTCTCCCAGCTGATGAATTTTACGCATCGAGTAAACAAATTTTCCTAATCTTTCTGTTCAAGCGCCATCTAC	1.01
GATGATTGTTCTCCCAGCTGATGAATTGAACAGGTCGAGTAAACAAATTTTCCTAATCTTTCTGTTCAAGCGCCATCTAC	0.192
GATGATTGTTCTCCCAGCTGATGAATTCTACGCATCGAGTAAACAAATTTTCCTAATCTTTCTGTTCAAGCGCCATCTAC	0.854
GATGATTGTTCTCCCAGCTGATGAATTGGACTTCTCGAGTAAACAAATTTTCCTAATCTTTCTGTTCAAGCGCCATCTAC	0.397
GATGATTGTTCTCCCAGCTGATGAATTGTTCTCTTCGAGTAAACAAATTTTCCTAATCTTTCTGTTCAAGCGCCATCTAC	0.401
GATGATTGTTCTCCCAGCTGATGAATTGGGTCCCTCGAGTAAACAAATTTTCCTAATCTTTCTGTTCAAGCGCCATCTAC	0.341
GATGATTGTTCTCCCAGCTGATGAATTTATACACTCGAGTAAACAAATTTTCCTAATCTTTCTGTTCAAGCGCCATCTAC	1.07
GATGATTGTTCTCCCAGCTGATGAATTCTATAACTCGAGTAAACAAATTTTCCTAATCTTTCTGTTCAAGCGCCATCTAC	0.329
GATGATTGTTCTCCCAGCTGATGAATTACCCTGTTCGAGTAAACAAATTTTCCTAATCTTTCTGTTCAAGCGCCATCTAC	0.292
GATGATTGTTCTCCCAGCTGATGAATTATTTGCCTCGAGTAAACAAATTTTCCTAATCTTTCTGTTCAAGCGCCATCTAC	2.04
GATGATTGTTCTCCCAGCTGATGAATTCCCCGTCTCGAGTAAACAAATTTTCCTAATCTTTCTGTTCAAGCGCCATCTAC	0.252
GATGATTGTTCTCCCAGCTGATGAATTCGAGCACTCGAGTAAACAAATTTTCCTAATCTTTCTGTTCAAGCGCCATCTAC	0.419
GATGATTGTTCTCCCAGCTGATGAATTACATCAATCGAGTAAACAAATTTTCCTAATCTTTCTGTTCAAGCGCCATCTAC	0.634
